{"source": "paper PMC12136788", "binders": {"B1": {"name": "chr2:228220401:228220402:+_ENSG00000168958_ENST00000354503|hu_hu|motif|central (ssRNA)", "RNA": "GGGAGUUCUACAGUCCGACGAUCUAGUGAAGCUGCAUCUACAACAGUCAGGUCAUCUGACGUUCCUUCAAUGGUUGUAUCGGUAUUUGAAAUGCCAUACAGAGAAUCAUUUCUGACCAGCUGUCCAUUUUGGCGAACAGCAUUCAACAGAGGAUUGAGCAUCA"}, "B2": {"name": "chr11:108043965:108043966:-_ENSG00000149308_ENST00000278612|hu_hu|motif|central (ssRNA)", "RNA": "GGGAGUUCUACAGUCCGACGAUCAGAAUUAUCUUGGCAAUUUGAUAGCUGUGACAUAACUGGUUCUAACACAUUAAUUUCGGUUUUACUCUUGUGAACUUCACUAGAAUCUGAUGACUUGGAACCAUGAAAAUUAAUUUUAAGCAACAGAGGAUUGAGCAUCA"}, "B3": {"name": "chr2:48026839:48026840:+_ENSG00000116062_ENST00000540021|hu_hu|hu_hu_hu_mus_False|68_108 (ssRNA)", "RNA": "GGGAGUUCUACAGUCCGACGAUCAUAGUGUGCCACUAGCGUCCUAAAUCUGGAACAGUGGCGGUCAUCUGAAAACUGGCCGAUGAAAAACUUGCCCAGUGAAGUGUCCACAAAGCAAACACCAUACACACGAGUGUGACCAGACAACAGAGGAUUGAGCAUCA"}, "B4": {"name": "chrX:69798090:69798091:-_ENSMUSG00000031343_ENSMUST00000055966|mus_mus|mus_mus_mus_hu_False|18_28 (ssRNA)", "RNA": "GGGAGUUCUACAGUCCGACGAUCAAGUCCCCGGGUUCUUGUCGUCUUGAUUCCCCUUGACCAGUGGUUCCAGGGAGAAUAUUAAUCAGGAAAAGAAUCCCAAGGCUGGUCACAUAAAAGUGCCACAUUUGUGUGAUUAUCAUCCAACAGAGGAUUGAGCAUCA"}, "B5": {"name": "chr5:173383253:173383254:+_ENSG00000113742_ENST00000334035|hu_hu|motif|central (ssRNA)", "RNA": "GGGAGUUCUACAGUCCGACGAUCAAAACACCUAUAUUAUAGGUCAUUCUUUUCAUUAUACUAUAGUUAAGUUACAGACUGCGGCAAAAGGACAUGCCAGCGUGAAGAGGUUGAGGAAGGGGUCAGAAUGAACAGAAGAGUGCACAACAGAGGAUUGAGCAUCA"}, "B6": {"name": "chr5:135702403:135702404:+_ENSMUSG00000002748_ENSMUST00000002825|mus_mus|motif|central (ssRNA)", "RNA": "GGGAGUUCUACAGUCCGACGAUCGUCACACAGGAACCAUAAGUUUUGUCCUUGCUUGGGCACAGUGGUCUCCACAGCUUCGGGUGCUGGUCCAUGGUGCGCAUUCACACUUGCAUUCUUGCCUAGGUUUGCUUUCUUACUUCGCAACAGAGGAUUGAGCAUCA"}, "B7": {"name": "chr17:64801638:64801639:+_ENSG00000154229_ENST00000413366|hu_hu|FALSE|FALSE (ssRNA)", "RNA": "GGGAGUUCUACAGUCCGACGAUCAUCAAAUACAUAUAUAUACACACACAUAUGUAGUAAGAGCCUAAUCUAUCACGUAAACUAGCCAUUCAUUUUUGAAAUUUUAUCUACAUUUAAAAAGUAAUCUAUCUGAUACAGUGCCCACAACAGAGGAUUGAGCAUCA"}, "B8": {"name": "chr2:179515052:179515053:+_ENSMUSG00000000305_ENSMUST00000000314|mus_hu|mus_mus_mus_hu_False|28_98 (ssRNA)", "RNA": "GGGAGUUCUACAGUCCGACGAUCGCUGUCCCAUGCAGUGACGGUAAACGCCACCUGCUCGGAGGGGACCUGCAGCUCCCGGGUGGCGAAGACUGUCCCAUCUGCCCCGACUUUGAAGUCCAUGCUGUUGGUCUCAUAUUGUGUCAACAGAGGAUUGAGCAUCA"}, "B9": {"name": "28747954_28748754_1226_3pUTR_ENSG00000108582_ENST00000225719|human|control|control (ssRNA)", "RNA": "GGGAGUUCUACAGUCCGACGAUCCUGAGAUGGUUGCAUUCUCUAACCCAGAUCCUGUUAUGGAAUCUUUAACAAAUCCUUUCACUCCAAUGUGAACCUUUUCAAUCAAUGUGAUCAAAGACUCACGAUUGUUCUCCCAUUCCUCAACAGAGGAUUGAGCAUCA"}, "B10": {"name": "chr7:56127975:56127976:+_ENSG00000146731_ENST00000540286|hu_hu|FALSE|FALSE (ssRNA)", "RNA": "GGGAGUUCUACAGUCCGACGAUCUGGUCCUUUGAUCAAUAAUGUGACAGAACGAGGGUUGUUACAUUUCUCAAUAAAGGUAAACUUCUCUUCUCCCAAUGUAUACUCAUAUACAAGUCCUGCAUGUCCCAAGCAGUCAGGACUCAACAGAGGAUUGAGCAUCA"}, "B11": {"name": "chr9:72466633:72466634:+_ENSMUSG00000037674_ENSMUST00000093820|mus_mus|FALSE|FALSE (ssRNA)", "RNA": "GGGAGUUCUACAGUCCGACGAUCCUGAUAUGACUGUCCAGGUACAGCAAAAGCAUGAGGUUUCCUGAAACGAUCUUCUACUAGUUCCUGAUAGCUUGGGAGAAUGCCAUGACCAGAAACCGAUGAAUUACCAACCCCACCAUACAACAGAGGAUUGAGCAUCA"}, "B12": {"name": "chr14:59855892:59855893:+_ENSMUSG00000035469_ENSMUST00000043227|mus_mus|FALSE|FALSE (ssRNA)", "RNA": "GGGAGUUCUACAGUCCGACGAUCGCUUCCAUUAUUAUAUCAGAAGAAAACAUUAAUUUCAAUAAUAGUUUCUUGCUUUCUAUGAUUAUAACCAAAACCAAGUAGAAAAAUAAAAAGAUUGCAUUUAAAAAAAAUUUGCAAACCCAACAGAGGAUUGAGCAUCA"}, "B13": {"name": "chr1:58468927:58468928:-_ENSMUSG00000026034_ENSMUST00000148330|mus_mus|mus_mus_mus_hu_False|48_78 (ssRNA)", "RNA": "GGGAGUUCUACAGUCCGACGAUCAAUUACUGAAAAAGAUGUUCAUUACCUUAGCUAGGCCAUGUAUGAACCAAAUUACCCAAACAACAUAAAAUGUGCAAUAUAAAAAUGUUAAGAAUUUACAAAGCUGUACAAAAUAACUUACAACAGAGGAUUGAGCAUCA"}, "B14": {"name": "chr1:220276048:220276049:+_ENSG00000067704_ENST00000302637|hu_hu|hu_hu_hu_mus_True|28_98 (ssRNA)", "RNA": "GGGAGUUCUACAGUCCGACGAUCGCAAAUUGCCUGGUUGGCUGGAAUUGUCCAAGGCUGGGUGGUCCAAACUAAAACGCUAACAGGGGAUGAGGCAUCUGUAAGAGAUGCCAAUUUCGGAGGAGGUCUCAGGAGGGGGAAUCUCAACAGAGGAUUGAGCAUCA"}}, "note": "This is one part of the list.", "data": [{"molecular_target": "T1, UNK ZnF1-3 (human, UniProt Q9C0B0 31-174)", "T1 sequence": "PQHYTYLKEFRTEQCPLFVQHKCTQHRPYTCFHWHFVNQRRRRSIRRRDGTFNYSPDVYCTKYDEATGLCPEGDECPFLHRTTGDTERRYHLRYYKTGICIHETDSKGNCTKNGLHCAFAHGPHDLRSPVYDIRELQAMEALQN", "test": "nsRBNS (natural sequence RNA bind-n-seq); RBNS binding buffer (assumed for nsRBNS): 25 mM Tris pH 7.5, 150 mM KCl, 3 mM MgCl2, 0.01% Triton X-100, 500 ug/ml BSA, 20 U/ml SUPERase-In, 4 C; UNK is unkempt and MSI1 is Musashi-1; names of the RNAs are library labels; protein concentration not given here; high values mean tight binding", "units": {"binding signal": "enrichment R"}, "values": [{"binder": "B1", "binding signal": 0.487}, {"binder": "B2", "binding signal": 0.729}, {"binder": "B3", "binding signal": 1.01}, {"binder": "B4", "binding signal": 0.783}, {"binder": "B5", "binding signal": 2.7}, {"binder": "B6", "binding signal": 0.551}, {"binder": "B7", "binding signal": 0.993}, {"binder": "B8", "binding signal": 0.807}, {"binder": "B9", "binding signal": 0.547}, {"binder": "B10", "binding signal": 0.792}, {"binder": "B11", "binding signal": 1.33}, {"binder": "B12", "binding signal": 2.77}, {"binder": "B13", "binding signal": 0.968}, {"binder": "B14", "binding signal": 2.29}]}]}
